According to US10376499B2, “Combination therapy for treatment of resistant bacterial infections” (priority 2014, dated 2019):

How the values were obtained:
[1] = system: A. baumannii isolate containing OXA-94, OXA-23, and AmpC (ARC5081); assay: microbe, parasite or virus in culture; format: cell-based; conditions: Acinetobacter baumannii
[2] = system: A. baumannii isolate containing OXA-94, OXA-23, and AmpC (ARC5081); format: cell-based, Acinetobacter baumannii; conditions: compound 1 added to sulbactam/imipenem regimen (Cmax 10 μg/mL QID); compound 1 Cmax as low as 2 μg/mL; no evidence of regrowth by 24 hours
[3] = system: A. baumannii; assay: MIC by broth microdilution (CLSI), panel of 60 A. baumannii clinical isolates (Example 1)
[4] = Acinetobacter baumannii, strain ARC2059, PSE-2, PSE-1
[5] = Acinetobacter baumannii, strain ARC2597 (A. baumannii/calcoaceticus complex), OXA*
[6] = Acinetobacter baumannii, strain ARC2720 (A. baumannii/calcoaceticus complex), OXA*
[7] = Acinetobacter baumannii, strain ARC2582, OXA*
[8] = Acinetobacter baumannii, strain ARC2719, OXA*
[9] = Acinetobacter baumannii, strain ARC2728 (A. baumannii/calcoaceticus complex), OXA*
[10] = Acinetobacter baumannii, strain ARC5090, OXA*

Molecule	MIC [1] [µg/mL]	MIC [3, 4] [µg/mL]	MIC [3, 5] [µg/mL]	MIC [3, 6] [µg/mL]	MIC [3, 7] [µg/mL]	MIC [3, 8] [µg/mL]	MIC [3, 9] [µg/mL]	MIC [3, 10] [µg/mL]	also measured
CC1=C[C@@H]2CN(C(=O)N2OS(=O)(=O)O)[C@@H]1C(N)=O [Compound 1, (2S,5R)-2-carbamoyl-3-methyl-7-oxo-1,6-diazabicyclo[3.2.1]oct-3-en-6-yl hydrogen sulfate]	128	–	–	–	–	–	–	–	bacterial response (bacterial burden timecourse) [2]: rapid and cidal response
C[C@@H](O)[C@H]1C(=O)N2C(C(=O)O)=C(SCCNC=N)C[C@H]12 [Imipenem, (5R,6S)-3-[[2-(formimidoylamino)ethyl]thio]-6-[(R)-1-hydroxyethyl]-7-oxo-1-azabicyclo[3.2.0]hept-2-ene-2-carboxylic acid]	16 (≈ 53.4 µM)	–	–	–	–	–	–	–	–
C[C@H]1COc2c(N3CCN(C)CC3)c(F)cc3c(=O)c(C(=O)O)cn1c23 [LEVO, levofloxacin]	–	> 32	< 0.03	2 (≈ 5.53 µM)	–	–	–	–	–
C[C@@H](O)[C@H]1C(=O)N2C(C(=O)O)=C(S[C@@H]3CN[C@H](C(=O)N(C)C)C3)[C@H](C)[C@H]12 [Meropenem, meropenem]	–	0.5 (≈ 1.3 µM)	–	1 (≈ 2.61 µM)	0.25 (≈ 0.652 µM)	0.25 (≈ 0.652 µM)	0.25 (≈ 0.652 µM)	0.25 (≈ 0.652 µM)	–
CC1(C)[C@H](C(=O)O)N2C(=O)C[C@H]2S1(=O)=O [Sulbactam, (2S,5R)-3,3-dimethyl-7-oxo-4-thia-1-azabicyclo[3.2.0]heptane-2-carboxylic acid 4,4-dioxide]	8 (≈ 34.3 µM)	–	1 (≈ 4.29 µM)	2 (≈ 8.57 µM)	1 (≈ 4.29 µM)	2 (≈ 8.57 µM)	2 (≈ 8.57 µM)	2 (≈ 8.57 µM)	–
CN(C)[C@@H]1C(O)=C(C(N)=O)C(=O)[C@@]2(O)C(O)=C3C(=O)c4c(O)cccc4[C@@](C)(O)[C@H]3C[C@@H]12 [TET, tetracycline]	–	4 (≈ 9 µM)	1 (≈ 2.25 µM)	2 (≈ 4.5 µM)	2 (≈ 4.5 µM)	2 (≈ 4.5 µM)	1 (≈ 2.25 µM)	2 (≈ 4.5 µM)	–
gentamycin	–	–	–	–	–	–	–	–	MIC ([3]; strain ARC2719, OXA*): 0.5 µg/mL; MIC ([3]; strain ARC2720 (A. baumannii/calcoaceticus complex), OXA*): 0.5 µg/mL; MIC ([3]; strain ARC2728 (A. baumannii/calcoaceticus complex), OXA*): 0.25 µg/mL

In brackets after ≈: the same amount, converted by molar mass. Counter-ions that a name gives are not always drawn.
